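Step 1: Grow cells in 96-well plates. Step 2: Expose to compound for 48 hours at 5 concentrations. Step 3: Interpolate endpoints linearly; if unreached, use highest concentration. At the GI50, growth is halved. The concentration for full growth arrest is given as TGI.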
System: NCI-H322M lung
Assay: DTP human tumour cell line panel, 48 h

Going from `Brc1ccc(N/N=C/c2c[nH]c3ccc(Br)cc23)nc1` to `Cc1ccc(O)cc1Nc1nc(SCCN2CCOCC2)nc2c1cnn2CC(Cl)c1ccc(Br)cc1` (stereo unspecified), the GI50 rises from 3.5 µM to 25.6 µM (7.3-fold).

`Cc1nc(Nc2ccccn2)sc1C(=O)CC(SCC(=O)Nc1ccc(Cl)cc1)c1ccccc1F` (stereo unspecified) showed a GI50 of 3.08 µM.

Going from `Brc1ccc(N/N=C/c2c[nH]c3ccc(Br)cc23)nc1` to `Cc1ccc(O)cc1Nc1nc(SCCN2CCOCC2)nc2c1cnn2CC(Cl)c1ccc(Br)cc1` (stereo unspecified), the TGI rises from 15.4 µM to 79.9 µM (5.2-fold).

For `Cc1nc(Nc2ccccn2)sc1C(=O)CC(SCC(=O)Nc1ccc(Cl)cc1)c1ccccc1F` (stereo unspecified), the TGI was 21.4 µM.

From PubChem BioAssay (NCI)
